This assay addresses T1, human C3d (human, UniProt P01024 partial chain).
T1 construct: domain: C3d; also called C3d antigen
Description: ELISA, human C3d coated on plate.

Chain of human C3d (P01024 1002-1303 limits assumed): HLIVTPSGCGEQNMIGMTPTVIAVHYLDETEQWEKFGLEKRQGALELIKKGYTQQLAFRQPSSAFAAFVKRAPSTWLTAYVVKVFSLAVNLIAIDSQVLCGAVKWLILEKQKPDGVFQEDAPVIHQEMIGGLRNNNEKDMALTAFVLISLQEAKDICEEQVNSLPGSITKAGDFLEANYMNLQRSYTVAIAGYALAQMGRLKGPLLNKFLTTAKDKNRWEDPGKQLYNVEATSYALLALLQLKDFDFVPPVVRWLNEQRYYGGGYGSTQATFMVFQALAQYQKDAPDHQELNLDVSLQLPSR

B1: Exemplary Fusion Construct 143 (other)
heavy: QVQLVQSGAEVKKPGASVKVSCKASGYTFTNYYINWVRQAPGQGLEWMGVINPYSGGTSYNQKFKGRVTMTVDTSTSTAYMELSSLRSEDTAVYFCSSPYWGQGTLVTVSSASTKGPSVFPLAPCSRSTSESTAALGCLVKDYFPEPVTVSWNSGALTSGVHTFPAVLQSSGLYSLSSVVTVPSSSLGTKTYTCNVDHKPSNTKVDKRV[human IgG4 Fc with S228P L235E M428L N434S (EU numbers) not given here]GGGGSGGGGSGGGGSEDCNELPPRRNTEILTGSWSDQTYPEGTQAIYKCRPGYRSLGNVIMVCRKGEWVALNPLRKCQKRPCGHPGDTPFGTFTLTGGNVFEYGVKAVYTCNEGYQLLGEINYRECDTDGWTNDIPICEVVKCLPVTAPENGKIVSSAMEPDREYHFGQAVRFVCNSGYKIEGDEEMHCSDDGFWSKEKPKCVEISCKSPDVINGSPISQKIIYKENERFQYKCNMGYEYSERGDAVCTESGWRPLPSCEEKSCDNPYIPNGDYSPLRIKHRTGDEITYQCRNGFYPATRGNTAKCTSTGWIPAPRCTLK
light: DVVMTQSPLSLPVTLGQPASISCKSSQSLLDSDGKTYLNWFQQRPGQSPRRLIYLVSKLDSGVPDRFSGSGSGTDFTLKISRVEAEDVGVYYCWQGTHFPRTFGGGTKVEIKRTVAAPSVFIFPPSDEQLKSGTASVVCLLNNFYPREAKVQWKVDNALQSGNSQESVTEQDSKDSTYSLSSTLTLSKADYEKHKVYACEVTHQGLSSPVTKSFNRGEC
Molecule B1 had a concentration for a half-maximal effect (EC50) of 0.05 nM.

B2: Exemplary Fusion Construct 95 (other)
heavy: QVQLVQSGAEVKKPGASVKVSCKASGYTFTNYYINWVRQAPGQGLEWMGVINPYSGGTSYNQKFKGRVTMTVDTSTSTAYMELSSLRSEDTAVYFCSSPYWGQGTLVTVSSASTKGPSVFPLAPCSRSTSESTAALGCLVKDYFPEPVTVSWNSGALTSGVHTFPAVLQSSGLYSLSSVVTVPSSSLGTKTYTCNVDHKPSNTKVDKRV[human IgG4 Fc with S228P L235E M428L N434S (EU numbers) not given here]
light: not shown
Regarding B2, the EC50 was found to be 0.04 nM.

What is called EC50 is the concentration giving half of the maximal effect. A high value points to a less potent agent.
